# Results taken from PMC8321701.
# Amino acid sequences for entries named in this document (tags omitted). A change or cut given only in a name is not applied to a line headed by its entry.
# UniProt P62745: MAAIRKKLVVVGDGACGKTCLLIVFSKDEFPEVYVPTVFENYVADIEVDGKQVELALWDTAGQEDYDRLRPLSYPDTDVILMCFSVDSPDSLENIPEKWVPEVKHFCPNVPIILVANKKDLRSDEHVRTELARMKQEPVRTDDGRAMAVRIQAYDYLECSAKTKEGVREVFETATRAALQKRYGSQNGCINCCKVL
# UniProt Q12972: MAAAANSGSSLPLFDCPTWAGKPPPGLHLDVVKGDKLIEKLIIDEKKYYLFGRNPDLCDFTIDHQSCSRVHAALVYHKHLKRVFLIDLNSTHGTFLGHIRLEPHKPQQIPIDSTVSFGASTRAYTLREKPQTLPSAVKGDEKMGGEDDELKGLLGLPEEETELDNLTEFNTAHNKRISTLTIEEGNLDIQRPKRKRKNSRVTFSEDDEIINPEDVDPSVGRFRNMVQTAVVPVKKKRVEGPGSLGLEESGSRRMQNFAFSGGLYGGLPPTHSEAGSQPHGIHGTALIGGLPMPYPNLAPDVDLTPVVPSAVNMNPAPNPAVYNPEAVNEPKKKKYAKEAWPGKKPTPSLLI
# UniProt Q13136: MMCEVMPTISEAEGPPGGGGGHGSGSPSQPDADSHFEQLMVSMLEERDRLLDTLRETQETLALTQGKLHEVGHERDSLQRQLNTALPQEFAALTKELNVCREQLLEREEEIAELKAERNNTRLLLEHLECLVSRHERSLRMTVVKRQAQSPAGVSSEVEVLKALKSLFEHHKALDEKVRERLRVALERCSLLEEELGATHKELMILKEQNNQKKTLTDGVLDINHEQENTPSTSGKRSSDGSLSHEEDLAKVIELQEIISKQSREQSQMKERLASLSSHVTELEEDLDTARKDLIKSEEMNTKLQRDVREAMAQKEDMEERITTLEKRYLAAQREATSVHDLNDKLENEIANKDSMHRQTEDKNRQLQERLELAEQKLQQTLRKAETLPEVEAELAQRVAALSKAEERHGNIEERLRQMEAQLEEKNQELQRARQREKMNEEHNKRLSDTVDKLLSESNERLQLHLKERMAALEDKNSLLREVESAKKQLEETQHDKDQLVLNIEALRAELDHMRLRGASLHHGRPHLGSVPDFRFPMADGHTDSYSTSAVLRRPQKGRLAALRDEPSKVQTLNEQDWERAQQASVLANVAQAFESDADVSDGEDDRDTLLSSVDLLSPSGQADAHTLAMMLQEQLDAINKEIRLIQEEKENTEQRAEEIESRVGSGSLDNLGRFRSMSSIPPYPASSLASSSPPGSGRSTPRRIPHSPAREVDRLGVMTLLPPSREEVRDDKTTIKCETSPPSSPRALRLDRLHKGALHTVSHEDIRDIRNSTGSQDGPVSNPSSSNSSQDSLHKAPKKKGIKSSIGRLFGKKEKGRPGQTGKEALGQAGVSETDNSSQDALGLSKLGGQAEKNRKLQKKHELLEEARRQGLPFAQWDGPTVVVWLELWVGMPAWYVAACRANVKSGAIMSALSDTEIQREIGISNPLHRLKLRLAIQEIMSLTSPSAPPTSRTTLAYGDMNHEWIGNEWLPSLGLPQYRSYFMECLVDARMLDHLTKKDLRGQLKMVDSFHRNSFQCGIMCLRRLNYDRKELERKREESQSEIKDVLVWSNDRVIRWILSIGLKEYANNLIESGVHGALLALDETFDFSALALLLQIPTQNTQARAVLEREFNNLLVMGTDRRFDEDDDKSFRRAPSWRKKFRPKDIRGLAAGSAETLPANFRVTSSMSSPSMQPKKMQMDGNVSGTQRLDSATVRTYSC
# UniProt O14638: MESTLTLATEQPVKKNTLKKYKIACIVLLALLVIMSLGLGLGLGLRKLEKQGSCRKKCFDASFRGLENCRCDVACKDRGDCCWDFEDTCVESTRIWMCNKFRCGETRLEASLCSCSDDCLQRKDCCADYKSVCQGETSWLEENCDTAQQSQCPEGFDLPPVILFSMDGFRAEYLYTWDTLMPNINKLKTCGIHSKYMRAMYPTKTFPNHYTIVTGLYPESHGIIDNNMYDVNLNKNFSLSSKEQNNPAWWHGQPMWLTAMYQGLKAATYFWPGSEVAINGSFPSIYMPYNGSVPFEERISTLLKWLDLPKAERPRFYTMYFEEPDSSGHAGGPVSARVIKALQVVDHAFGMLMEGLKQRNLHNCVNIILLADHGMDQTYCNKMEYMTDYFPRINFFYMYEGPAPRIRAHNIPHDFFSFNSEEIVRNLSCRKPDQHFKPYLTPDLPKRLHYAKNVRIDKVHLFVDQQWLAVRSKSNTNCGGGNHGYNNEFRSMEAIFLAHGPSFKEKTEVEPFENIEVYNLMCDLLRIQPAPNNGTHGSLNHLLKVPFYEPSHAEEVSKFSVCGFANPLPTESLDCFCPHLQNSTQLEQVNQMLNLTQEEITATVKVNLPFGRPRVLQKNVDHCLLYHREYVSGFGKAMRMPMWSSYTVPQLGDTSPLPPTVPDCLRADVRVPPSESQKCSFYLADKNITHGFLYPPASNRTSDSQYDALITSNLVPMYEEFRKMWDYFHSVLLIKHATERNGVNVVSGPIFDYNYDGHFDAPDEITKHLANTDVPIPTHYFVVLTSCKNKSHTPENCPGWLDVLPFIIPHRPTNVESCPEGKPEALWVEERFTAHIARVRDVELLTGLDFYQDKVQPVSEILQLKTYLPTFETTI
# UniProt P29350: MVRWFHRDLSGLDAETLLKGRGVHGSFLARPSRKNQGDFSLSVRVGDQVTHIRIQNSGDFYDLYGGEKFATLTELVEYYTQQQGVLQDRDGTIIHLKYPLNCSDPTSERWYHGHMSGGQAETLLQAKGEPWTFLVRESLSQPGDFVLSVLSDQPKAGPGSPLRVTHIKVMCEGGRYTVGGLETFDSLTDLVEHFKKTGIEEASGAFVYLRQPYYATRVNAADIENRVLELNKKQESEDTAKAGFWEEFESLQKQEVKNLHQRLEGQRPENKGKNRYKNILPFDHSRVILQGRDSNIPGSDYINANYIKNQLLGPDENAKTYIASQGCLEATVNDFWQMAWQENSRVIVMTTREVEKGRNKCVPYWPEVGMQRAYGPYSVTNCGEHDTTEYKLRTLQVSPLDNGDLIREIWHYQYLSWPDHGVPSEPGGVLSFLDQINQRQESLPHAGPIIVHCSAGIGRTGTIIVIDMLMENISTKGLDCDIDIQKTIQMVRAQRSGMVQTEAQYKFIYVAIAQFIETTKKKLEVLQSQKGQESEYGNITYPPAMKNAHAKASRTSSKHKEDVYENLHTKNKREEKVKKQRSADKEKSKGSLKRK
# UniProt O75145: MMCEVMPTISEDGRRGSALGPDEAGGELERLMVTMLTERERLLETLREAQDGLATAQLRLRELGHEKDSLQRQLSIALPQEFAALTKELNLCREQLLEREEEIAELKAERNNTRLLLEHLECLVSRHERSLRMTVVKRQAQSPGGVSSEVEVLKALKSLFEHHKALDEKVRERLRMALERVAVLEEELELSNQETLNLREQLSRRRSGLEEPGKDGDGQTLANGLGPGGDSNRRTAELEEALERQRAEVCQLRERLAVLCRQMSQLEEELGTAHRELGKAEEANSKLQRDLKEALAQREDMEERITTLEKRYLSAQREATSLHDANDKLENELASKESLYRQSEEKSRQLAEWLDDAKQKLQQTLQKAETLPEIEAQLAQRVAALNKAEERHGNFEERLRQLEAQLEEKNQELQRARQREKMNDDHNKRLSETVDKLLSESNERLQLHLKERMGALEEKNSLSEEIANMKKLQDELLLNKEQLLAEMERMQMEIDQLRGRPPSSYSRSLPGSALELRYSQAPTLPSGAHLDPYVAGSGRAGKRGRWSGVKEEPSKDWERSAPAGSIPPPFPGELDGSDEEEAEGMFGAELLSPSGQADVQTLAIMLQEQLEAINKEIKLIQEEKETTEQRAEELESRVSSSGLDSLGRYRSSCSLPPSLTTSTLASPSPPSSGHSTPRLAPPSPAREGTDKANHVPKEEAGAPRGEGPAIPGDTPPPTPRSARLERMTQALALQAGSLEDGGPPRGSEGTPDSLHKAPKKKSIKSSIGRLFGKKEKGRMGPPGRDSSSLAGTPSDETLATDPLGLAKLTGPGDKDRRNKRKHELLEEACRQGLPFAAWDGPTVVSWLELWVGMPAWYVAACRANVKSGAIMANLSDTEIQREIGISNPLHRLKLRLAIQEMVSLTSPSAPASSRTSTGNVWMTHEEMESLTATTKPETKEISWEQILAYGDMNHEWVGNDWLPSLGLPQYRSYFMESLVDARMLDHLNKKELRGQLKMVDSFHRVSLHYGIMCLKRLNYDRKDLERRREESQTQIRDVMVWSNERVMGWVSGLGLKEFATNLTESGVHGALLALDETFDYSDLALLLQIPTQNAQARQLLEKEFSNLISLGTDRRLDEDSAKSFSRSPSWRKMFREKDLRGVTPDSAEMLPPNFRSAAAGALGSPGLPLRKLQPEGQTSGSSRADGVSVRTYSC
# Substitutions are numbered along the chain they refer to. In names and notes the source's numbering stands. These are yes or no findings as the source states them, for the method shown. Some binding calls cover weakened binding; strength is not graded here. For some assays here: Tags and fused reporters may be left off the sequences shown.
# T1: biotinylated CNKSR1 (wild-type) (human) (UniProt Q969H4)
# T1 sequence (chain, biotinylated): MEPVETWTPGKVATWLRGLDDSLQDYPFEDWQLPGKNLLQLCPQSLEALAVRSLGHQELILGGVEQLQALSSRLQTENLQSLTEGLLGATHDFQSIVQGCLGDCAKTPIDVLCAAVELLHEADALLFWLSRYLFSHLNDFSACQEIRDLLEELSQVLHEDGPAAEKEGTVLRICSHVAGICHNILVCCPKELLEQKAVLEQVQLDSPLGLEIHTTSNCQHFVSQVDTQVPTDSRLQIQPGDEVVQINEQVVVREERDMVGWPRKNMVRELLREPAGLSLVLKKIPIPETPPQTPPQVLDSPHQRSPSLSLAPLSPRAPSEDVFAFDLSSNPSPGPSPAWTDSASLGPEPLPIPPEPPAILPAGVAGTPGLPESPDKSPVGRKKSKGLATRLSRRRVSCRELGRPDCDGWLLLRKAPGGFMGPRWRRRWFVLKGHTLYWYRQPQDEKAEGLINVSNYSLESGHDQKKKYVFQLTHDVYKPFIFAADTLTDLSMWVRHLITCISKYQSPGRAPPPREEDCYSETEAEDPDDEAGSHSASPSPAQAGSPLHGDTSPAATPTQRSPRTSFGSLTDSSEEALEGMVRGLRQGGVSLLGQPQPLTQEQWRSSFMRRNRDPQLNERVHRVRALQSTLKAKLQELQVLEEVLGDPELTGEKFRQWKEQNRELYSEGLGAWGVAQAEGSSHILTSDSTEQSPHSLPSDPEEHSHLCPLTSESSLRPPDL
# B1: FLAG-GST-tagged ILKAP of the human phosphatase array (protein, UniProt Q9H0C8 1-392)
# chain: MDLFGDLPEPERSPRPAAGKEAQKGPLLFDDLPPASSTDSGSGGPLLFDDLPPASSGDSGSLATSISQMVKTEGKGAKRKTSEEEKNGSEELVEKKVCKASSVIFGLKGYVAERKGEREEMQDAHVILNDITEECRPPSSLITRVSYFAVFDGHGGIRASKFAAQNLHQNLIRKFPKGDVISVEKTVKRCLLDTFKHTDEEFLKQASSQKPAWKDGSTATCVLAVDNILYIANLGDSRAILCRYNEESQKHAALSLSKEHNPTQYEERMRIQKAGGNVRDGRVLGVLEVSRSIGDGQYKRCGVTSVPDIRRCQLTPNDRFILLACDGLFKVFTPEEAVNFILSCLEDEKIQTREGKSAADARYEAACNRLANKAVQRGSADNVTVMVVRIGH
# B2: FLAG-GST-tagged PTPN18 of the human phosphatase array (protein, UniProt Q99952 1-460)
# chain: MSRSLDSARSFLERLEARGGREGAVLAGEFSDIQACSAAWKADGVCSTVAGSRPENVRKNRYKDVLPYDQTRVILSLLQEEGHSDYINGNFIRGVDGSLAYIATQGPLPHTLLDFWRLVWEFGVKVILMACREIENGRKRCERYWAQEQEPLQTGLFCITLIKEKWLNEDIMLRTLKVTFQKESRSVYQLQYMSWPDRGVPSSPDHMLAMVEEARRLQGSGPEPLCVHCSAGCGRTGVLCTVDYVRQLLLTQMIPPDFSLFDVVLKMRKQRPAAVQTEEQYRFLYHTVAQMFCSTLQNASPHYQNIKENCAPLYDDALFLRTPQALLAIPRPPGGVLRSISVPGSPGHAMADTYAVVQKRGAPAGAGSGTQTGTGTGTGARSAEEAPLYSKVTPRAQRPGAHAEDARGTLPGRVPADQSPAGSGAYEDVAGGAQTGGLGFNLRIGRPKGPRDPPAEWTRV
# B3: FLAG-GST-tagged G6PC3 of the human phosphatase array (protein, UniProt Q9BUM1 1-346)
# chain: MESTLGAGIVIAEALQNQLAWLENVWLWITFLGDPKILFLFYFPAAYYASRRVGIAVLWISLITEWLNLIFKWFLFGDRPFWWVHESGYYSQAPAQVHQFPSSCETGPGSPSGHCMITGAALWPIMTALSSQVATRARSRWVRVMPSLAYCTFLLAVGLSRIFILAHFPHQVLAGLITGAVLGWLMTPRVPMERELSFYGLTALALMLGTSLIYWTLFTLGLDLSWSISLAFKWCERPEWIHVDSRPFASLSRDSGAALGLGIALHSPCYAQVRRAQLGNGQKIACLVLAMGLLGPLDWLGHPPQISLFYIFNFLKYTLWPCLVLALVPWAVHMFSAQEAPPIHSS
# B4: FLAG-GST-tagged PPP1R14C of the human phosphatase array (protein, UniProt Q8TAE6 1-165)
# chain: MSVATGSSETAGGASGGGARVFFQSPRGGAGGSPGSSSGSGSSREDSAPVATAAAAGQVQQQQQRRHQQGKVTVKYDRKELRKRLVLEEWIVEQLGQLYGCEEEEMPEVEIDIDDLLDADSDEERASKLQEALVDCYKPTEEFIKELLSRIRGMRKLSPPQKKSV
# B5: FLAG-GST-tagged DUSP10 of the human phosphatase array (protein, UniProt Q9Y6W6 1-482)
# chain: MPPSPLDDRVVVALSRPVRPQDLNLCLDSSYLGSANPGSNSHPPVIATTVVSLKAANLTYMPSSSGSARSLNCGCSSASCCTVATYDKDNQAQTQAIAAGTTTTAIGTSTTCPANQMVNNNENTGSLSPSSGVGSPVSGTPKQLASIKIIYPNDLAKKMTKCSKSHLPSQGPVIIDCRPFMEYNKSHIQGAVHINCADKISRRRLQQGKITVLDLISCREGKDSFKRIFSKEIIVYDENTNEPSRVMPSQPLHIVLESLKREGKEPLVLKGGLSSFKQNHENLCDNSLQLQECREVGGGASAASSLLPQPIPTTPDIENAELTPILPFLFLGNEQDAQDLDTMQRLNIGYVINVTTHLPLYHYEKGLFNYKRLPATDSNKQNLRQYFEEAFEFIEEAHQCGKGLLIHCQAGVSRSATIVIAYLMKHTRMTMTDAYKFVKGKRPIISPNLNFMGQLLEFEEDLNNGVTPRILTPKLMGVETVV
# B6: FLAG-GST-tagged DUSP7 of the human phosphatase array (protein, UniProt Q16829 1-419)
# chain: MKNQLRGPPARAHMSTSGAAAAGGTRAGSEPGAGSGSGAGTGAGAATGAGAMPCKSAEWLQEELEARGGASLLLLDCRPHELFESSHIETAINLAIPGLMLRRLRKGNLPIRSIIPNHADKERFATRCKAATVLLYDEATAEWQPEPGAPASVLGLLLQKLRDDGCQAYYLQGGFNKFQTEYSEHCETNVDSSSSPSSSPPTSVLGLGGLRISSDCSDGESDRELPSSATESDGSPVPSSQPAFPVQILPYLYLGCAKDSTNLDVLGKYGIKYILNVTPNLPNAFEHGGEFTYKQIPISDHWSQNLSQFFPEAISFIDEARSKKCGVLVHCLAGISRSVTVTVAYLMQKMNLSLNDAYDFVKRKKSNISPNFNFMGQLLDFERTLGLSSPCDNHASSEQLYFSTPTNHNLFPLNTLEST
# B7: biotinylated PH domain of CNKSR1 (wild-type) (domain or fragment, UniProt Q969H4 403-502)
# chain: RPDCDGWLLLRKAPGGFMGPRWRRRWFVLKGHTLYWYRQPQDEKAEGLINVSNYSLESGHDQKKKYVFQLTHDVYKPFIFAADTLTDLSMWVRHLITCIS
# modifications: biotinylated
# B8: biotinylated PH domain of CNKSR1, K414E/P416E/R423A/R425L/R426A/K478N (EEALAN) mutant (domain or fragment, UniProt Q969H4 403-502)
# chain: B7 chain with K12E, P14E, R21A, R23L, R24A, K76N
# modifications: biotinylated
# B9: biotinylated PH domain of CNKSR1, K414R (domain or fragment, UniProt Q969H4 403-502)
# chain: B7 chain with K12R
# modifications: biotinylated
# B10: biotinylated PH domain of CNKSR1, K414Q (domain or fragment, UniProt Q969H4 403-502)
# chain: B7 chain with K12Q
# modifications: biotinylated
# B11: biotinylated PH domain of CNKSR1, W493A (domain or fragment, UniProt Q969H4 403-502)
# chain: B7 chain with W91A
# modifications: biotinylated
# B12: biotinylated CNKSR1 (W493A), full length (protein, UniProt Q969H4 1-720)
# chain: T1 sequence (chain, biotinylated) with W493A
# modifications: biotinylated
# Assays:
# [1] = target: T1, biotinylated CNKSR1 (wild-type) (human); experiment: AlphaScreen or HTRF; high-throughput screen: biotinylated CNKSR1 (WT, W493A) or RhoB (Q63L) bait with 171 FLAG-GST-tagged human phosphatases (154 full length, 17 catalytic domains); threshold 10 times the signal for CNKSR1-biotin/FLAG-DHFR; wheat cell-free translation products
# [2] = target: FLAG-tagged RhoB (Q63L) (human) (UniProt P62745); experiment: AlphaScreen or HTRF; in vitro binding assay of a biotinylated and a FLAG-tagged protein, both synthesized by wheat germ extracts; 100 mM Tris-HCl pH 7.5, 0.01% Tween 20, 1 mg/ml BSA, anti-FLAG antibody, streptavidin donor and anti-IgG acceptor beads; room temperature, 1 h; threshold of interaction 10 times the signal with DHFR
Molecule,binding [1],binding [2]
FLAG-GST-tagged PPP1R8 of the human phosphatase array (from UniProt Q12972 1-351),binds,–
FLAG-GST-tagged PPFIA1 of the human phosphatase array (from UniProt Q13136 1-1202),binds,–
FLAG-GST-tagged ENPP3 of the human phosphatase array (from UniProt O14638 1-875),binds,–
FLAG-GST-tagged PTPN6 of the human phosphatase array (from UniProt P29350 1-595),binds,–
FLAG-GST-tagged PPFIA3 of the human phosphatase array (from UniProt O75145 1-1194),binds,–
B1,binds,–
B2,binds,–
B3,binds,–
B4,binds,–
B5,binds,–
B6,binds,–
B7,–,binds
B8,–,binds
B9,–,binds
B10,–,binds
B11,–,no binding
B12,–,no binding
